What was measured:
[1] = biological target: human GCGR (full-length glucagon receptor of 477 amino acids) (human, UniProt P47871 26-477); assay: cell-based or functional assay
[2] = biological target: human GLP-1R (human, UniProt P43220 24-463); assay: cell-based or functional assay

UniProt P47871, sequence (P47871 26-477 limits assumed): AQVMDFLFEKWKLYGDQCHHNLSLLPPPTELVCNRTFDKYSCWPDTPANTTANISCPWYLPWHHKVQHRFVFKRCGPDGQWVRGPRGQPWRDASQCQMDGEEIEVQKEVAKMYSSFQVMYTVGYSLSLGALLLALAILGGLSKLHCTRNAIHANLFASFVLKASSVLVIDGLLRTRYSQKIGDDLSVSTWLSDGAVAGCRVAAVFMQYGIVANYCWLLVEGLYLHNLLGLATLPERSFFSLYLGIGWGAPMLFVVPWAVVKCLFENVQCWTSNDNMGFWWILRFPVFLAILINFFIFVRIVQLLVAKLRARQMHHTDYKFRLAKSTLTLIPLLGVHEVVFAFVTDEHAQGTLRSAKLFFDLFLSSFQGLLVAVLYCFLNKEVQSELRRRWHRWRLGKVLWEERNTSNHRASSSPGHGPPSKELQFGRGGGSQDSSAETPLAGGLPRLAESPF

Row | Binder | IC50 [1] [nM] | Imax (%) [1] [%] | EC50 [2] [nM] | Emax % [2] [%]
1 | hu1803-9B (other) heavy: HGEGTFTSDVSSYLEEEAAKEFIAWLVKGGGGGGGSGGGGSGGGGSEVQLVQSGAEVKKPGASVKVSCKASGYTFTDYWIEWVRQAPGQGLEWMGEILPGSTYTNYNEKFKGRVTMTRDTSTSTVYMELSSLRSEDTAVYYCARGLSTLMAVDYFDYWGQGTTVTVSSASTKGPSVFPLAPCSRSTSESTAALGCLVKDYFPEPVTVSWNSGALTSGVHTFPAVLQSSGLYSLSSVVTVPSSSLGTKTYTCNVDHKPSNTKVDKRV[human IgG4 Fc with S228P F234A L235A (EU numbers) left out] light: DIQMTQSPSSLSASVGDRVTITCRASQDISNYLNWYQQKPGKAVKLLIYYSSTLHSGVPSRFSGSGSGTDYTLTISSLQPEDFATYYCQQTNIFPWTFGGGTKVEIKRTVAAPSVFIFPPSDEQLKSGTASVVCLLNNFYPREAKVQWKVDNALQSGNSQESVTEQDSKDSTYSLSSTLTLSKADYEKHKVYACEVTHQGLSSPVTKSFNRGEC | 67 | 100 | 0.22 | 100
2 | hu1803-9D (other) heavy: HGEGTFTSDVSSYLEEEAAKEFVAWLVKGGGGGGGSGGGGSGGGGSEVQLVQSGAEVKKPGASVKVSCKASGYTFTDYWIEWVRQAPGQGLEWMGEILPGSTYTNYNEKFKGRVTMTRDTSTSTVYMELSSLRSEDTAVYYCARGLSTLMAVDYFDYWGQGTTVTVSSASTKGPSVFPLAPCSRSTSESTAALGCLVKDYFPEPVTVSWNSGALTSGVHTFPAVLQSSGLYSLSSVVTVPSSSLGTKTYTCNVDHKPSNTKVDKRV[human IgG4 Fc with S228P F234A L235A (EU numbers) left out] light: DIQMTQSPSSLSASVGDRVTITCRASQDISNYLNWYQQKPGKAVKLLIYYSSTLHSGVPSRFSGSGSGTDYTLTISSLQPEDFATYYCQQTNIFPWTFGGGTKVEIKRTVAAPSVFIFPPSDEQLKSGTASVVCLLNNFYPREAKVQWKVDNALQSGNSQESVTEQDSKDSTYSLSSTLTLSKADYEKHKVYACEVTHQGLSSPVTKSFNRGEC | 79 | 100 | 0.32 | 100

Source: patent US20220153853A1 (JIANGSU HENGRUI MEDICINE, published 2022)
